# The other results are listed elsewhere or left out.
# B1: B725 (Bifidobacterium sp) (protein)
# chain: MNNTTRAVIATAAIGALLIPLAGCGNTTTSSGKTELTVWSWDASIDRAAKSFMKANPDITVKVSNVGSTEETYTALNNAAQAGSGLPDVTLIEYLAIPQFVHSDTLMDLSKVYNTAKLKDTFTPGTWNSVNINGGLYAMPADSGPMAYFYDKDVFDKAGISEPPTTWDEFYEDAKKIRATGSYITSDSGDAGLFNAMMWAMGGHAYKLNDDKLTINIAKDKGAQRFMDLWQKMRDEDLIDVHTKTWTDDWMKSLGDGSIASLISGAWMANNLLQGVPQATGKFRVALLPTIDGTPINGEYGGSGLAITKKIPDGKLDAAKKFVEYVTTNDEGIDARVSNGSFPATTKTLNQKDFLAKTTLRNTDGSDNEFFGGQKYNEIFSQAAKDVTGKWEFLPFEPYARSVYNDNMGSFFAGKTSFRTAADNWQKALKDYAKDQGFTVQ
# Tests used:
# Assay in all cases: glycan array binding signal (z-score within array); higher = stronger binding
# Conditions in all cases: glycan notation: IUPAC condensed, linker removed
# [1] = molecular target: Gal(b1-3)GalNAc(b1-3)Gal(a1-4)Gal(b1-4)Glc
# How it was run: (§1)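 The binding signal is a Z-score computed within each array and averaged over linkers. Arrays of the same protein sequence at different concentrations or buffers were also averaged together. Data originate from 3228 arrays in the Consortium for Functional Glycomics database, kept only where the protein sequence was available.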
# [2] = molecular target: Gal(b1-3)GalNAc(b1-4)Gal(b1-4)Glc
# How it was run: as §1
# [3] = molecular target: Gal(b1-3)GalNAc(b1-4)[Neu5Ac(a2-3)]Gal(b1-4)Glc
# How it was run: as §1
# [4] = molecular target: Gal(b1-3)GlcNAc
# How it was run: as §1
# [5] = molecular target: Gal(b1-3)GlcNAc(a1-3)Gal(b1-4)GlcNAc
# How it was run: as §1
# [6] = molecular target: Gal(b1-3)GlcNAc(a1-6)Gal(b1-4)GlcNAc
# How it was run: as §1
# [7] = molecular target: Gal(b1-3)GlcNAc(b1-2)Man
# How it was run: as §1
# [8] = molecular target: Gal(b1-3)GlcNAc(b1-2)Man(a1-3)[Gal(b1-3)GlcNAc(b1-2)Man(a1-6)]Man(b1-4)GlcNAc(b1-4)GlcNAc
# How it was run: as §1
# [9] = molecular target: Gal(b1-3)GlcNAc(b1-2)Man(a1-3)[Gal(b1-3)GlcNAc(b1-2)Man(a1-6)]Man(b1-4)GlcNAc(b1-4)[Fuc(a1-6)]GlcNAc
# How it was run: as §1
# [10] = molecular target: Gal(b1-3)GlcNAc(b1-2)Man(a1-3)[GlcNAc(b1-4)][Gal(b1-3)GlcNAc(b1-2)Man(a1-6)]Man(b1-4)GlcNAc(b1-4)GlcNAc
# How it was run: as §1
# [11] = molecular target: Gal(b1-3)GlcNAc(b1-2)[Gal(b1-3)GlcNAc(b1-6)]Man(a1-6)[Gal(b1-3)GlcNAc(b1-2)Man(a1-3)]Man(b1-4)GlcNAc(b1-4)GlcNAc
# How it was run: as §1
# [12] = molecular target: Gal(b1-3)GlcNAc(b1-3)Gal(b1-3)GlcNAc
# How it was run: as §1
# [13] = molecular target: Gal(b1-3)GlcNAc(b1-3)Gal(b1-4)Glc
# How it was run: as §1
# [14] = molecular target: Gal(b1-3)GlcNAc(b1-3)Gal(b1-4)GlcNAc
# How it was run: as §1
# [15] = molecular target: Gal(b1-3)GlcNAc(b1-3)Gal(b1-4)GlcNAc(b1-2)Man(a1-3)[Gal(b1-3)GlcNAc(b1-3)Gal(b1-4)GlcNAc(b1-2)Man(a1-6)]Man(b1-4)GlcNAc(b1-4)GlcNAc
# How it was run: as §1
# [16] = molecular target: Gal(b1-3)GlcNAc(b1-3)Gal(b1-4)GlcNAc(b1-2)[Gal(b1-3)GlcNAc(b1-3)Gal(b1-4)GlcNAc(b1-6)]Man(a1-6)[Gal(b1-3)GlcNAc(b1-3)Gal(b1-4)GlcNAc(b1-2)Man(a1-3)]Man(b1-4)GlcNAc(b1-4)[Fuc(a1-6)]GlcNAc
# How it was run: as §1
# [17] = molecular target: Gal(b1-3)GlcNAc(b1-3)Gal(b1-4)GlcNAc(b1-3)Gal(b1-4)GlcNAc(b1-2)[Gal(b1-3)GlcNAc(b1-3)Gal(b1-4)GlcNAc(b1-3)Gal(b1-4)GlcNAc(b1-6)]Man(a1-6)[Gal(b1-3)GlcNAc(b1-3)Gal(b1-4)GlcNAc(b1-3)Gal(b1-4)GlcNAc(b1-2)Man(a1-3)]Man(b1-4)GlcNAc(b1-4)[Fuc(a1-6)]GlcNAc
# How it was run: as §1
# [18] = molecular target: Gal(b1-3)GlcNAc(b1-3)Gal(b1-4)GlcNAc(b1-6)[Gal(b1-3)GlcNAc(b1-3)]Gal(b1-4)Glc
# How it was run: as §1
# [19] = molecular target: Gal(b1-3)GlcNAc(b1-3)Gal(b1-4)[Fuc(a1-3)]GlcNAc
# How it was run: as §1
# [20] = molecular target: Gal(b1-3)GlcNAc(b1-3)Gal(b1-4)[Fuc(a1-3)]GlcNAc(b1-6)[Gal(b1-3)GlcNAc(b1-3)]Gal(b1-4)Glc
# How it was run: as §1
# [21] = molecular target: Gal(b1-3)GlcNAc(b1-3)GalNAc
# How it was run: as §1
# [22] = molecular target: Gal(b1-3)GlcNAc(b1-6)Gal(b1-4)GlcNAc
# How it was run: as §1
# [23] = molecular target: Gal(b1-3)GlcNAc(b1-6)GalNAc
# How it was run: as §1
# [24] = molecular target: Gal(b1-3)GlcNAc(b1-6)[Gal(b1-3)]GalNAc
# How it was run: as §1
# [25] = molecular target: Gal(b1-3)GlcNAc6S
# How it was run: as §1
# [26] = molecular target: Gal(b1-3)[Fuc(a1-4)]GlcNAc
# How it was run: as §1
# [27] = molecular target: Gal(b1-3)[Fuc(a1-4)]GlcNAc(b1-2)Man
# How it was run: as §1
# [28] = molecular target: Gal(b1-3)[Fuc(a1-4)]GlcNAc(b1-2)Man(a1-3)[Gal(b1-3)[Fuc(a1-4)]GlcNAc(b1-2)Man(a1-6)]Man(b1-4)GlcNAc(b1-4)[Fuc(a1-6)]GlcNAc
# How it was run: as §1
# [29] = molecular target: Gal(b1-3)[Fuc(a1-4)]GlcNAc(b1-3)Gal(b1-3)[Fuc(a1-4)]GlcNAc
# How it was run: as §1
# [30] = molecular target: Gal(b1-3)[Fuc(a1-4)]GlcNAc(b1-3)Gal(b1-4)[Fuc(a1-3)]GlcNAc
# How it was run: as §1
# [31] = molecular target: Gal(b1-3)[Fuc(a1-4)]GlcNAc(b1-6)GalNAc
# How it was run: as §1
# [32] = molecular target: Gal(b1-3)[GlcNAc(b1-6)]GalNAc
# How it was run: as §1
# [33] = molecular target: Gal(b1-3)[Neu5Ac(a2-6)]GalNAc
# How it was run: as §1
# [34] = molecular target: Gal(b1-3)[Neu5Ac(a2-6)]GlcNAc(b1-4)Gal(b1-4)Glc
# How it was run: as §1
# [35] = molecular target: Gal(b1-3)[Neu5Ac(b2-6)]GalNAc
# How it was run: as §1
# [36] = molecular target: Gal(b1-4)Gal
# How it was run: as §1
# [37] = molecular target: Gal(b1-4)GalNAc(a1-3)[Fuc(a1-2)]Gal(b1-4)GlcNAc
# How it was run: as §1
# [38] = molecular target: Gal(b1-4)GalNAc(b1-3)[Fuc(a1-2)]Gal(b1-4)GlcNAc
# How it was run: as §1
binder,measurement,setting,value
B1,glycan array binding signal (z-score),[1],-0.21
same,glycan array binding signal (z-score),[2],-0.184
same,glycan array binding signal (z-score),[3],-0.223
same,glycan array binding signal (z-score),[4],-0.1
same,glycan array binding signal (z-score),[5],-0.23
same,glycan array binding signal (z-score),[6],-0.21
same,glycan array binding signal (z-score),[7],-0.188
same,glycan array binding signal (z-score),[8],-0.209
same,glycan array binding signal (z-score),[9],-0.217
same,glycan array binding signal (z-score),[10],-0.191
same,glycan array binding signal (z-score),[11],-0.195
same,glycan array binding signal (z-score),[12],-0.194
same,glycan array binding signal (z-score),[13],0.425
same,glycan array binding signal (z-score),[14],0.105
same,glycan array binding signal (z-score),[15],0.041
same,glycan array binding signal (z-score),[16],-0.086
same,glycan array binding signal (z-score),[17],-0.096
same,glycan array binding signal (z-score),[18],0.204
same,glycan array binding signal (z-score),[19],-0.224
same,glycan array binding signal (z-score),[20],-0.144
same,glycan array binding signal (z-score),[21],-0.209
same,glycan array binding signal (z-score),[22],-0.18
same,glycan array binding signal (z-score),[23],-0.199
same,glycan array binding signal (z-score),[24],-0.2
same,glycan array binding signal (z-score),[25],-0.136
same,glycan array binding signal (z-score),[26],-0.219
same,glycan array binding signal (z-score),[27],-0.205
same,glycan array binding signal (z-score),[28],-0.139
same,glycan array binding signal (z-score),[29],-0.225
same,glycan array binding signal (z-score),[30],-0.203
same,glycan array binding signal (z-score),[31],-0.187
same,glycan array binding signal (z-score),[32],-0.224
same,glycan array binding signal (z-score),[33],-0.228
same,glycan array binding signal (z-score),[34],0.006
same,glycan array binding signal (z-score),[35],-0.229
same,glycan array binding signal (z-score),[36],-0.215
same,glycan array binding signal (z-score),[37],-0.218
same,glycan array binding signal (z-score),[38],-0.221
